# Source: the supplement of paper PMC11417369
# ± gives the standard deviation of the averaged measurements. The list shows a part of the results.
# Test system: PfAP2-G AP2 domain (GST-tagged)
# Experiment: gcPBM binding intensity (ln(normalized median fluorescence intensity)); higher = stronger DNA binding
# Outline: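 Each value is the highest Masliner-normalised natural-log median intensity across replicate spots of either orientation of a probe. The probes were primer-extended double-stranded 36-bp intergenic genomic sequences on an Agilent 4 × 180k array, alongside negative controls, exposed for 1 h to GST-tagged P. falciparum DNA-binding domains expressed in E. coli. Bound protein was picked up with Alexa488 anti-GST antibody and scanned at 488 nm.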
row,Sequence,gcPBM binding intensity (ln)
1,ATATAATTTGTTATACTAACTTTTTAATTATTGATA [GTGCAC_negctrl_site443],9.715 ± 0.021
2,AATACGTTTATATATTGTACGTTATATATATATATA [XGTACX_site7452],11.1 ± 0.86
3,TCATAAAATATGTTTTGTACATAAAATTAAACAAGT [XGTACX_site1763],10.9 ± 0.54
4,AAATAAGAGAAAATATGTACATACATATATTTATAT [XGTACX_site6210],11.1 ± 0.53
5,AAGAAAAGCAAACAAGTGCATAATAACAAAAAAAAT [GTGCAC_site9725],10.1 ± 0.12
6,TATTTATTTATAAACACACAAATATTTTTATTTATA [CACACA_site6889],9.71 ± 0.085
7,TAAGTTCGAATTACTTAAATATTGATTTTTTTAAAA [TGCATGCA_negctrl_site114],9.565 ± 0.007
8,AACGAAAGAAAAAAAGCACACACAGTTTTGAGCAAT [CACACA_site8658],9.96 ± 0.16
9,ACCATGATAAATGTATTAAATGTATCATAACCTATG [CACACA_negctrl_site513],9.91 ± 0.085
10,ATGGAAACAAGCATCACACATATAAATATATATATA [CACACA_site4979],10 ± 0.28
11,ATCCGTGTCTGAAATACACACATGATAATGTGAATG [CACACA_site8210],10 ± 0.23
12,CAAACATTTTAATGTACACACACCCACAGACAAACA [CACACA_site5522],11.3 ± 0.92
13,TTCTTTTTGAAATATTAACACACATTTTGTTAATTA [CACACA_site9337],9.825 ± 0.007
14,AGGAATTTATAAAATTGTACTTTTAATTACCTACAG [XGTACX_site3153],11.3 ± 0.93
15,ATAAATATCATATATATACACACGTAATACATAATA [CACACA_site4001],9.935 ± 0.092
16,ATCTTATATATACGTTGTACTACAGGATATGTCATA [XGTACX_site5734],11.3 ± 0.86
17,TTCATTTACCCTTATTAACACACAAAATATAATACG [CACACA_site8821],10.2 ± 0.19
18,TGTATATTATAAGATAGTACATATATATAATATATA [XGTACX_site1297],10.8 ± 0.65
19,TTAATATTATGTTAAAGTACTTTATATATATATAAT [XGTACX_site2646],11 ± 0.52
20,AAGGAGATAATTTATTGTACATATAATAAATGAACA [XGTACX_site6252],10.9 ± 0.68
21,TCTTACAAAAAAAAAAAAAAATAAAATAAAATATAT [CACACA_negctrl_site1575],9.54 ± 0.13
22,ATAAAATAAAATAAATGTACACGAAAAAAAATATTT [XGTACX_site3747],11.5 ± 0.91

row,Sequence,gcPBM binding intensity (ln)
1,ATATTAAGAATATATACACACATAAGTATTGTATAT [CACACA_site6110],9.835 ± 0.007
2,GTACACATATATATATATATATATATATATATATTA [CACACA_negctrl_site1580],10.9 ± 0.42
3,AAGAATATTTTTTTCTGTACATATAATTTATATACG [XGTACX_site5801],11.2 ± 0.71
4,TTACTTGTTTATTTTATTTTTTTTTTTTTTTTGTTA [TGCATGCA_negctrl_site266],9.46 ± 0.22
5,AGTGAGAAATACATAATAATACATTATGTGCATATT [XGTACX_negctrl_site247],9.92 ± 0.014
6,AAAAATTTATTTTGTTTTTTAAGATTTTTTTTTTTT [CACACA_negctrl_site1210],9.46 ± 0.028
7,GTTGGTAGATTTATTTGTACATATGTATCATATTAT [XGTACX_site7135],11 ± 0.39
8,ACATACATATATATACGTACATATATATTTATATAT [XGTACX_site5799],11.4 ± 0.97
9,ATTCTAAATATCAGTGCACACATTTCTACGCAAAGT [CACACA_site474],10.4 ± 0.16
10,AGCAAATACAAACACACACACACATATACATATATA [CACACA_site3497],10.11 ± 0.064
11,TAATTACAAAAACATACACACAAAAAAAAAAAAAAA [CACACA_site3782],9.74 ± 0.39
12,ATATATATATATATGGGTACGTAAAAATATAATAAA [XGTACX_site4036],11.3 ± 0.74
13,TCATATATTATATATTGTACAAAATAATAAGTATTT [XGTACX_site3987],10.7 ± 0.38
14,ATAATTGTTTAAAGGTGTACAATACATATATTTTAA [XGTACX_site3648],11.4 ± 0.84
15,ATTATACACCCGCGCACACACAACAAAAAAAAAAAA [CACACA_site5871],10.8 ± 0.71
16,ATGCAATTATATAGTAGTACAAATTTATAAATATAC [XGTACX_site4869],11.3 ± 0.76
17,ATAAATGGCTATAGCATATTGTATATGTGATTATAA [CACACA_negctrl_site948],9.7 ± 0.12
18,GTTGTTATATAAAATTGTACATAAAAAACAAAATAT [XGTACX_site5313],11.2 ± 0.76
19,TAAAATTATTAATGAGTGCATTATAAAATCTATATA [GTGCAC_site9493],9.88 ± 0.16
20,TTTTCTTTCTTTCAAACACACATTAATTTTATTCAT [CACACA_site2734],9.88 ± 0.12
21,TATATATATATATATTGTACTAAATCATTTAAATGA [XGTACX_site8016],10.8 ± 0.61
